The text below walks through data of publication PMC5260975.

By UniProt entry, the sequences of proteins in these tests, tags left out.
UniProt Q04206: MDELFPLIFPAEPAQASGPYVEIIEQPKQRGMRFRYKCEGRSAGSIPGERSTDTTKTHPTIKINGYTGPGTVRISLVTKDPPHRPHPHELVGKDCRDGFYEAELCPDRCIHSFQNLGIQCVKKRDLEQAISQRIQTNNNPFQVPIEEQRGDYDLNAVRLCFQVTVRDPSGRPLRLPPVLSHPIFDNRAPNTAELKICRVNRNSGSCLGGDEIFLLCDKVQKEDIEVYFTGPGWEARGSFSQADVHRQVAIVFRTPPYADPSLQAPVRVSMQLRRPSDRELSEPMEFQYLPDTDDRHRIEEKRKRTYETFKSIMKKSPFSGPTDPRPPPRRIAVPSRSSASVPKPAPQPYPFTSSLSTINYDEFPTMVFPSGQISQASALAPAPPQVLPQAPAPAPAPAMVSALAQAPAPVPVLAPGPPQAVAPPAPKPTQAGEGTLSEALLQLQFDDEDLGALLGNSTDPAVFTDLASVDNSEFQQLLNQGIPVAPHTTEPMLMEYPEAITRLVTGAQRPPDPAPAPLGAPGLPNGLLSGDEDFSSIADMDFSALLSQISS
UniProt P25963: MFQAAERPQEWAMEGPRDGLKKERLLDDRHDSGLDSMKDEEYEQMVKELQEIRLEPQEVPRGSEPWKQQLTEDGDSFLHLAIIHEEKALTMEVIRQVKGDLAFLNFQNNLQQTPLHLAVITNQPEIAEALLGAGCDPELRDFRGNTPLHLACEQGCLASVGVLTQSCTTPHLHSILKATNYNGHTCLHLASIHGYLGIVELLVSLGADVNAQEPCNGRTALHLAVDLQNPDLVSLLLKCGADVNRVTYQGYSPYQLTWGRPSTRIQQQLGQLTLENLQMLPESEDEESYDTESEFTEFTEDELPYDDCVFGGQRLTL

No constants are given. Whether binding was seen depends on the method and setting. Binding seen in cells or lysates may run through a third protein. Some entries that bind do so weakly or less than the wild type. For part of these data: Sequences can lack the tags named with a protein.

For experiment [1], the target named is T1, ankyrin-repeat-containing, SH3-domain-containing, and proline-rich region-containing protein 2 (ASPP2), endogenous (human (endogenous in HCC-LM3)) (UniProt Q13625).
T1 sequence: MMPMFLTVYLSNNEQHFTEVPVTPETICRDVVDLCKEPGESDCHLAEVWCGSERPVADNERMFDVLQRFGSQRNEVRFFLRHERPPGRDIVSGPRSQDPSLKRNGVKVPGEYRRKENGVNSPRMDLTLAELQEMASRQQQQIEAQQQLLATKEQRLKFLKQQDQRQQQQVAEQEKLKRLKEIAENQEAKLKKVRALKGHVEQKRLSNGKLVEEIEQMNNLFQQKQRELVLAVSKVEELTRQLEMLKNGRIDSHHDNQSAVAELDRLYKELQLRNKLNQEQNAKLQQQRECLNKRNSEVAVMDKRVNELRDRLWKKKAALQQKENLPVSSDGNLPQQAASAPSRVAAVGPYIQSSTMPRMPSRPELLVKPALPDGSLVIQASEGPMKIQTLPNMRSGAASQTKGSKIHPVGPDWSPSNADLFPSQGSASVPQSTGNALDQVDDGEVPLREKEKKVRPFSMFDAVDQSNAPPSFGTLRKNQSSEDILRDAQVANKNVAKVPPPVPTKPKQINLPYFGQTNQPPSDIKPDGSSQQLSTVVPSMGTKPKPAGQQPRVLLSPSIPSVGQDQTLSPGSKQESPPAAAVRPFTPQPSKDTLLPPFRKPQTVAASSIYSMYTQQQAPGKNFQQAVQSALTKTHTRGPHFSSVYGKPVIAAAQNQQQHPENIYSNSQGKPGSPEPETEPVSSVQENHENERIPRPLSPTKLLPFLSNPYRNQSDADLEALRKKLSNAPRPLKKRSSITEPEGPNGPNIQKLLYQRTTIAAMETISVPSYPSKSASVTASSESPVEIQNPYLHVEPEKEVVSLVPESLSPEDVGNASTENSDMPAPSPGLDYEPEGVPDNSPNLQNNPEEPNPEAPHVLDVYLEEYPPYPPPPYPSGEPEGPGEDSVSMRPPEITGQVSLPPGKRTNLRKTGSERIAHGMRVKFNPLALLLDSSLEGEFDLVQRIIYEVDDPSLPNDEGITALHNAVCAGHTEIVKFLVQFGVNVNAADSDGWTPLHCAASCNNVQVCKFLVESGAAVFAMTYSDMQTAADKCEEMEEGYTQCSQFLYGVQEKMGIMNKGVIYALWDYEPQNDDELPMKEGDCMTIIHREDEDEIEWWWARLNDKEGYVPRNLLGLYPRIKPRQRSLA
The experiment in a line: co-IP; HCC-LM3 lysates, immunoprecipitated with anti-ASPP2, western blot; control cells, cells transfected with pASPP2 and ASPP2-silenced cells.

The next experiment addresses T2, V5-tagged ASPP2(1-360) (UniProt Q13625).
T2 sequence: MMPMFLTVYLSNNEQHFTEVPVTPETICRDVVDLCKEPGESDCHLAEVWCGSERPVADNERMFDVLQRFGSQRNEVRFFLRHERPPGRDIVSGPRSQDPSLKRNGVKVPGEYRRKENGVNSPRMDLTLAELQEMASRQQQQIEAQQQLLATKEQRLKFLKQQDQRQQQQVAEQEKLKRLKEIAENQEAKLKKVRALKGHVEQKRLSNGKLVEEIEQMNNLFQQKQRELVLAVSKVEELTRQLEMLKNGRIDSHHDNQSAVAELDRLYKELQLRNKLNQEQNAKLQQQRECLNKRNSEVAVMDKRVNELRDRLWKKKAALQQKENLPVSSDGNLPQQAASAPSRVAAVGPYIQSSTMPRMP
The experiment in a line: co-IP; HEK293T co-transfected with Flag-BECN1 and V5-tagged ASPP2 (full length or fragments), EBSS 6 h at 24 h after transfection; IP with anti-V5 (in Figure 4b also with anti-Flag), western blot.

Experiment [2] deals with T3, V5-tagged full-length ASPP2 (UniProt Q13625).
T3 sequence: T1 sequence
The description is as above.

In experiment [3] the target is T4, V5-tagged ASPP2(925-1128) (UniProt Q13625).
T4 sequence: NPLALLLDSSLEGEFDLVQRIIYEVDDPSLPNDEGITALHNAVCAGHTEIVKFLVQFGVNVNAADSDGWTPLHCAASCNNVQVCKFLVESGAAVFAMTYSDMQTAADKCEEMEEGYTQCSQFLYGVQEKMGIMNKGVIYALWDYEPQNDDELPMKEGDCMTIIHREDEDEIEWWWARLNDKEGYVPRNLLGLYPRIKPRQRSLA
The experiment is described as above.

For the next experiment, the target named is T5, V5-tagged ASPP2(360-925) (UniProt Q13625).
T5 sequence: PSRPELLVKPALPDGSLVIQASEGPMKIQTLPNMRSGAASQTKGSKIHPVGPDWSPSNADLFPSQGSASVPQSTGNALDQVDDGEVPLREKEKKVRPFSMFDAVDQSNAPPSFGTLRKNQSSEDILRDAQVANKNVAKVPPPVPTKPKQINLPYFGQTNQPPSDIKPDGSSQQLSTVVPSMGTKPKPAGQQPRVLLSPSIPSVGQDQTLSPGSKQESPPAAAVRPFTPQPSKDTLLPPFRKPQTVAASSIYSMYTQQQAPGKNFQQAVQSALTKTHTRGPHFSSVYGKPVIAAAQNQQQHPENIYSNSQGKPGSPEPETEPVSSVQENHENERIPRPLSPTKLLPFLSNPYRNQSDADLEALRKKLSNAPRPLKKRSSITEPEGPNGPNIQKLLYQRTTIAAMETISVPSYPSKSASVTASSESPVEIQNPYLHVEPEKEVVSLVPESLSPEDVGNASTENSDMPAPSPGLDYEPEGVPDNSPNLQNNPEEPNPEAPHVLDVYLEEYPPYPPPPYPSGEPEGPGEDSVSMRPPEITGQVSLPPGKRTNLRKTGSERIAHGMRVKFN
Described as above.

As for “p65/RelA, endogenous (from UniProt Q04206 1-551)”, in experiment [1], the binding entry is recorded as “binds”.

Turning to “IκBα, endogenous (from UniProt P25963 1-317)”, the binding result in experiment [1] is “binds”.

As for “Flag-tagged full-length BECN1 (from UniProt Q14457 1-450)”, the binding entry with V5-tagged ASPP2(1-360) is “binds”; in experiment [2] it was “binds”; in experiment [3], “no binding”; in the experiment with V5-tagged ASPP2(360-925), “no binding”.
